Drawing on the supplement of paper PMC10986608, this text covers growth for 78 compounds.

Molecules are shown by their SMILES. Some of the results follow. Single values are uncertain, as repeats are few or missing.

This test relates to Candida albicans DPL-15. The test can be described thus: growth (OD600) after compound treatment (apparently relative to screen median) (relative growth (fraction; screen median 1.02)); DPL-15 is a caspofungin-resistant clinical isolate; higher = more fungal growth (less antifungal activity). The settings on record: 25 µM; RPMI 1640; 48 h; 30 °C.
Turning to `CCN1C(NCc2cccc(C(F)(F)F)c2)=N[C@@H](c2cccc(C(F)(F)F)c2)C(C(=O)OC)=C1C`, the growth worked out at 0.899. The value for `CC[C@@H](C)C(=O)N[C@@H]1CCCN1C(=O)/C=C/c1ccccc1` was 0.931; that for `CC(=O)O[C@@H]1C=C[C@@H](C#Cc2ccc(C(C)(C)C)cc2)O[C@@H]1COS(=O)(=O)c1ccc(C)cc1` was 0.935; that for `COC(=O)[C@H](Cc1ccccc1)N1C[C@@]2(O)CC[C@@H](O)[C@@H](OC)[C@@H]2[C@@](C)(O)[C@@H]1CC=C(C)C` was 0.917. The value for `C#CCCCC(=O)NCc1ccc(O)c(OC)c1` was 1.11; that for `O=C(c1c(O)cc(O)cc1Nc1ccnn1Cc1ccc(C(F)(F)F)cc1)N1Cc2cccnc2C1` was 0.985; that for `CC(=O)C1=C2C=CCCN2C(=O)NC1c1cc(F)ccc1Br` (stereo not drawn) was 1.27.

As for `CCOC(=O)c1cc2nc(SC)[nH]c(=O)c2nc1C(=O)OCC`, the growth was 1.04. The result for `CC(C)C1=C[C@H]2[C@H]3C(=O)C(c4ccccc4)=CC3(c3ccccc3)[C@@H]1C(=O)[C@]2(C)O` (stereo partly drawn) reads 0.999; that for `CC(=O)C1=C(C)N(Cc2ccc(F)cc2)C(=S)NC1c1ccccc1F` (stereo not drawn), 1.05. The value for `CC(C)OC(=O)[C@@H](Cc1ccccc1)N[C@H](/C=C/c1ccccc1)[C@@H](O)Cc1ccccc1` was 1.11; that for `COc1ccc(-c2[nH]c3cc(OC)cc(OC)c3c(=O)c2O)cc1` was active: 0.0446. The result for `COc1ccc(N2C(=O)c3[nH]nc(CC(C)C)c3C2c2ncccc2OC)cc1` (stereo not drawn) reads 0.982. As to `COCC(OC)[C@]12c3ccccc3[C@H](c3ccccc31)[C@H]1[C@@H]2C(=O)N2CC=CC[C@]12O` (stereo partly drawn), the growth is 1.05.

With `COc1ccc(N2C(=O)C3=C(C(CC(C)C)=NCC(C)(C)N3)C2c2ccc(F)cc2)cc1` (stereo not drawn), the growth was 1.12. For `C=CCNC1=NC(c2cccc(F)c2)C(C(=O)OC)=C(C)N1Cc1ccccc1` (stereo not drawn), the growth was 1.08. Turning to `COC(=O)[C@H]1[C@H](C(=O)OC)[C@@H](c2ccccc2)[C@@H]1c1ccccc1`, the growth stood at 0.895. The result for `CO[C@H]1CCN(C(=O)c2c(O)cc(O)cc2Nc2cn(C)nc2C)C1` reads 1.22; that for `COC(=O)C1=C(C)N(CCC(C)O)C(=O)N(C(C)=O)C1c1ccccc1` (stereo not drawn), 1.06; that for `O=C(c1c(O)cc(O)cc1Nc1ccnn1C1CCCCC1)N1Cc2cn[nH]c2C1`, 1.16.

Regarding `C=CCc1c(O)c(C(=O)c2ccccc2)c2c(c1OC)CC(C)O2` (stereo not drawn), the growth was 0.976. The result for `C=CCN1C(=O)C2=C(C(CC(C)C)=NCCN2)C1c1ccc2c(c1)OCO2` (stereo not drawn) reads 1. For `COC(=O)C1=C(C(=O)OC)[C@@H](c2ccc(F)cc2)O[C@@H]1c1ccc(F)cc1`, the growth worked out at 0.98.

For `O=C(NO)[C@H](Cc1ccccc1)n1nnc(-c2ccccc2)c1C#Cc1ccccc1`, the growth was 0.558. The result for `COC(=O)C1=C(C(=O)OC)[C@@H](c2ccc(C(F)(F)F)cc2)O[C@H]1c1ccc(C)cc1` reads 1.07. The value for `C=CC[C@]12C[C@@]3(O[C@H](C4CCNCC4)N=C3C[C@H](c3ccc(OC)cc3)[C@H]1C)N(C)C2=O` was 1.1; that for `CC1(C)O[C@@H]2[C@@H](CO[C@@]3(COS(=O)(=O)Nc4ccccc4)OC(C)(C)O[C@@H]23)O1` was 1.26. The result for `COc1cc([C@H]2c3c(OC)c(O)c4oc5ccccc5c(=O)c4c3[C@@H]3C=C(C)CC(C)(C)[C@H]23)c2c(=O)c3ccccc3oc2c1O` reads 1.31; that for `COC(=O)c1cc2c(c3c4cc(F)ccc4n(S(=O)(=O)c4ccc(C)cc4)c13)C(=O)N(Cc1ccccc1OC)C2`, 1.12. As to `CC(=O)C1=C2C=CCCN2C(=O)NC1c1ccc2c(c1)CCO2` (stereo not drawn), the growth came to 0.9. The value for `O=C(OCc1ccccc1)c1cccc2c(=O)c3cccc(O)c3[nH]c12` was 0.971; that for `C[C@H]1[C@@H]2C[C@@]3(O[C@H](C4CCNCC4)N=C3C[C@@H]1c1ccccc1)N(Cc1cccnc1)C2=O` was 1.2; that for `C=CCC1=C(OC)[C@@]2(CC=C)C[C@@H]3[C@@H](c4ccc([N+](=O)[O-])cc4)[C@](O)(c4ccccc4)[C@]3(C1=O)C2=O` was 1.06. The value for `C=C(C)C1[C@H](c2cc(O)c(O)c3oc4ccccc4c(=O)c23)C=C(C)C[C@H]1c1cc(O)c(O)c2oc3ccccc3c(=O)c12` (stereo partly drawn) was 0.382. The result for `C=CCOC(=O)NC(c1ccc(F)c(F)c1)C(C(=O)COC)C(=O)OC` (stereo not drawn) reads 0.985; that for `Cc1ccc(C2NC(=O)c3nn(-c4ccc(F)cc4)c(C(C)C)c32)cc1` (stereo not drawn), 1. As for `COc1ccc(-c2cnn3c(N)c(-c4ccc(OC)nc4)cnc23)cc1`, the growth turned out to be 1.04.

In the case of `CCOC(=O)c1ccc(N2C[C@@]3(O)CC[C@@H](O)[C@@H](OC)[C@@H]3[C@@](C)(O)[C@@H]2CC=C(C)C)cc1`, the growth amounted to 1.02. For `COC(=O)C1=C(C)N(Cc2ccc(Cl)cc2)C(=S)NC1c1ccc(Br)cc1` (stereo not drawn), the growth is 0.901. The value for `COC(=O)C/C=C/[C@H](C)[C@H](NC(=O)C(F)(F)F)c1ccc2ccccc2c1` was 0.964; that for `COc1ccc(OC)c(CNCC2CCCN(CCc3ccccc3C)C2)c1` (stereo not drawn) was 1.2. Turning to `c1ccc([C@H]2c3cc4c(cc3O[C@@H]3[C@H]5CC[C@H](C5)[C@H]23)OCO4)cc1`, the growth was determined as 1.08. As for `CCOC(=O)C1=NO[C@@]2(C=C(Br)C3(OCCCO3)[C@H]3O[C@H]32)C1`, the growth worked out at 1.01. The value for `CC(C)CC(=O)c1c(O)cc(O)cc1O` was 1; that for `COc1ccc(N2C(=O)c3[nH]nc(CC(C)C)c3C2c2ccccc2Br)c(OC)c1` (stereo not drawn) was 1.17; that for `COCCNC1=NC(c2ccc(Cl)cc2)C(C(=O)OC)=C(C)N1Cc1cccc(C(F)(F)F)c1` (stereo not drawn) was 0.892.

`COc1ccc(-c2[nH]c3ccccc3c(=O)c2O)cc1`: the growth was active: 0.0638. The result for `O=S(=O)(c1cccs1)N1CCCc2nc(-c3ccc(F)cc3)ccc21` reads 0.917. The value for `Cc1ccccc1S(=O)(=O)N1CCCc2nc(-c3ccc(F)cc3)ccc21` was 0.907; that for `COc1ccc(Cn2nc(C)cc2Nc2cc(O)cc(O)c2C(=O)N2Cc3cccc(F)c3C2)cc1` was 1.01; that for `CC1=CC2=C[C@@H](OC(=O)N(C(C)C)C(C)C)C[C@@H](C)[C@]2(O)[C@@H]2CCC3(OCCO3)[C@@]2(O[Si](C)(C)C)C1` was 0.766. For the compound `Cc1ccc(C2C3=C(NCCN=C3CC(C)C)C(=O)N2Cc2ccccc2)cc1` (stereo not drawn), the growth was found to be 1.06. Regarding `CS(=O)(=O)Oc1c(C[C@@]23CCCCC2=Nc2ccccc23)occc1=O`, the growth stood at 0.923. The result for `CC(C)CC1=NCCN(C)C2=C1C(c1ccc3c(c1)OCO3)N(c1ccccc1)C2=O` (stereo not drawn) reads 0.924; that for `COc1ccc(C2=CC3=C(Br)C(=O)C(C)(O)C(=O)C3=CO2)cc1` (stereo not drawn), 0.965. The value for `O=C(c1ccccc1)c1c(O)cc(O)cc1O` was 1.06; that for `CC(=O)[C@@H]1C[C@@H]2C=C(C(C)C)[C@H]1C(=O)[C@]2(C)O` was 0.992; that for `Fc1ccc([C@H]2OC[C@H]3[C@@H]2CO[C@H]3c2ccc(F)cc2)cc1` was 1.08. The result for `COC(=O)[C@@H]1[C@@H](c2ccccc2)[C@]2(c3ccc(OC)cc3)Oc3cc(OC)cc(OC)c3[C@@]23N=C(c2ccccc2)N[C@@]13O` reads 0.86; that for `Cc1ccc(S(=O)(=O)N/N=C/c2cccc(C(=O)O)c2)cc1`, 1.16; that for `O=C(O)c1cccc2c(=O)c3cccc(OCc4ccccc4)c3[nH]c12`, 0.971. `CCCCCOS(=O)(=O)NCC(F)(F)F`: the growth worked out at 1.06. The result for `CC1(C)C/C2=C/c3cccc(n3)C(=O)N3C[C@H](O)C[C@H]3C(=O)N(C2)C1` reads 0.989; that for `CO[C@@H]1[C@H](O)CC[C@]2(O)CN(CCc3cccs3)[C@@H](CC=C(C)C)[C@](C)(O)[C@@H]12`, 0.953. The value for `COC(=O)C1=C(C)N(Cc2ccc(C(F)(F)F)cc2)C(NCc2ccc(C(F)(F)F)cc2)=NC1c1ccc(Cl)cc1` (stereo not drawn) was 0.876; that for `COC(=O)[C@@H]1[C@H](C(=O)OC)[C@@H](c2ccccc2)[C@H]1c1ccccc1` was 1.02. Turning to `COC(=O)C(C(=O)OC)C(NC(=O)OCc1ccccc1)c1ccccc1` (stereo not drawn), the growth was 1.21.

Consider `Cc1ccc(S(=O)(=O)N2CCC3(C)C(=C(C#Cc4ccccn4)c4ccccc43)C2)cc1` (stereo not drawn), for which the growth was 1.18.

For the compound `C#CCn1nc2c(c1CC(C)C)C(c1ccc(F)cc1)N(c1ccc(OC)cc1)C2=O` (stereo not drawn), the growth came out at 0.995.

With `CCCCCCNS(=O)(=O)N(CC)C(=O)OC(C)(C)C`, the growth was found to be 1.12. The result for `COC(=O)C1=C(C)N(Cc2ccccc2)C(NCc2ccc(OC)cc2)=NC1c1ccccc1` (stereo not drawn) reads 1.02; that for `CCOCCOCCN(OC)C(=O)[C@H]1[C@@H](O)[C@@]2(O)c3c(OC)cc(OC)cc3O[C@@]2(c2ccc(OC)cc2)[C@@H]1c1ccccc1`, 0.957; that for `COc1ccc(Cn2nc(C(C)C)cc2Nc2cc(O)cc(O)c2C(=O)N2Cc3cn[nH]c3C2)cc1`, 1.11. Regarding `COC[C@H]1O[C@H](c2ccccc2)C=C[C@@H]1OCC#Cc1ccccc1N`, the growth turned out to be 0.848. The result for `COCc1n[nH]c2c1C(c1ccc(F)cc1)N(c1ccc(OC)cc1)C2=O` (stereo not drawn) reads 1.16.

Turning to `COc1ccc(Cc2cc(C)c(O)c(C)c2OC)c(O)c1C`, the growth amounted to 0.872. Consider `COc1ccc(-c2nc3cc(-c4ccc(F)cc4)ccc3n2C)cc1`, for which the growth was 0.984. The result for `C=CCN1C(=O)C2=C(C(C(C)C)=NCCN2C)C1c1ccc(C)cc1` (stereo not drawn) reads 0.988.
